Test results: PubChem BioAssay AID493208 (National Center for Advancing Translational Sciences (NCATS), 2011)
Screen size: about 44,000 compounds; about 340 (0.77%) were called active. Another 5% or so got no clear call; they are omitted. The call rests on the fitted dose curve; in most records, active means well fitted inhibition curve with a large enough effect; inconclusive means small, poorly fitted or top-dose-only effect; inactive means flat fitted curve, though single readings scatter. The list shows a part of the results.

Experiment: Acumen qHTS Assay for Inhibitors of the mTORC1 Signaling Pathway in MEF (Tsc2-/-, p53-/-) Cells: Sytravon; further: nearly all actives have a fitted effect of over 50% in size;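 on activity change, negative = inhibition: plate controls were DMSO for no effect and rapamycin for full effect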
Details: phospho-rpS6 immunofluorescence/PI, 24 h; series mostly up to 38.3 µM; activity change, negative = inhibition: at the top concentration
Procedure, shortened: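 Read-out: phospho-S6 Alexa-488 intensity over PI intensity per well, scored as % active cells using thresholds from rapamycin (7.5 nM) and DMSO controls. Tsc2-/-, p53-/- MEFs exposed to compound for 24 h; PI cell count recorded as viability.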
Potency means the concentration at half of the fitted maximal effect.

Activity change, negative = inhibition, inactive:
CCOc1ccc(NC(=O)Cn2nc(Cc3cccnc3)c3ccccc3c2=O)cc1 1.67%
CCOC(=O)c1c(C)oc2ncnc(Nc3cccc(C(F)(F)F)c3)c12 0.267%
Cc1ccc(OCC(=O)Nc2ccc(OCc3cc(=O)n4c(C)csc4n3)cc2)cc1C -25%
CCOc1ccccc1Nc1sc(C(=O)c2ccccc2)c(N)c1C(=O)Nc1ccc(F)cc1 -0.0438%
Cc1ccc(Cn2ccnc2SCC(=O)NCc2ccccc2)cc1 2.56%
Cc1nn(CC(=O)NC2CC2)c(=O)c2cc3cc(F)ccc3n12 -6.12%
Cc1ccc(NC(=O)c2ccc3c(c2)NC(=O)c2ccccc2S3)c(Cl)c1 -18.5%
CSc1ccc(CCNC(=O)Cn2nc(C)n3c(cc4sccc43)c2=O)cc1 -1.09%
Cc1nc(-c2ccc(Cl)cc2)sc1CCNC(=O)C(=O)Nc1ccc2c(c1)OCO2 -5.65%
COc1ccc(CNC(=O)C(=O)NCC(c2ccco2)S(=O)(=O)c2ccc(Cl)cc2)cc1 (stereo not given) -15.4%
Cn1c(=O)c2c(nc(SCC(=O)Nc3ccccc3F)n2Cc2ccccc2F)n(C)c1=O -13.8%
CCOC(=O)c1cccc(NC(=O)Cn2ncc3c(=O)oc4ccccc4c32)c1 10.5%
Cc1ccc(C(=O)c2oc3ccccc3c2NC(=O)COc2ccc(Cl)c(C)c2)cc1 8.17%
COc1cc(C2CC(=O)Nc3cc4c(cc32)OCO4)cc(OC)c1O (stereo not given) 1.73%
Cc1c(C)n(Cc2ccc(Cl)cc2)c2ccc(C(=O)N3CCN(c4ccccc4F)CC3)cc12 -2.08%
COc1ccc(OC)c(CCNC(=O)c2nc(-c3ccc(Cl)cc3)n3c2CCCCC3)c1 -4.45%
CC(C)COc1ccc(C(=O)N2CCCCC2CCN2CCOCC2)cc1 (stereo not given) -9.48%
CCc1cccc(CC)c1NC(=O)CN(C)S(=O)(=O)c1ccc2c(c1)n(C)c(=O)c(=O)n2C 0.0961%
CSc1nn(Cc2ccc(F)cc2)c(N(C(C)=O)C(C)=O)c1S(=O)(=O)c1ccccc1 1.15%
Cc1ccc(C(=O)CSc2nc(C)cc(C)c2C(=O)Nc2cccc(C)c2)cc1 -5.09%
COc1cccc(CNC(=O)C2CCCN(c3nnc(-n4c(C)ccc4C)s3)C2)c1OC (stereo not given) 1.43%
O=C(Nc1ccc(OC(F)(F)F)cc1)c1cc(-c2ccc(Cl)cc2)on1 2.83%
Cc1nc2c3ccccc3nc(NNC(=O)CCC(=O)N3CCN(c4ccc(F)cc4)CC3)n2n1 1.81%
CC(=O)N1CCCc2ccc(NC(=O)c3ccc(OC(C)C)cc3)cc21 5.25%
Cc1ccc2nc(COc3ccccc3NC(=O)Nc3ccc(F)c(Cl)c3)cc(=O)n2c1 7.53%
Cc1cccc(NC(=O)CSc2cn(CC(=O)N3CCOCC3)c3ccccc23)c1C -8.3%
CCSc1nc(-c2ccc(OC)cc2)nc2c1Cc1c(CO)cnc(C)c1O2 -5.86%
Cc1ccc(-n2c3nc(=O)n(C)c(=O)c-3cc3ccccc32)c(C)c1 2.66%
CCC(=O)N1CCc2cc(Br)cc(S(=O)(=O)N3CCCC(C(=O)NCc4ccc(C)cc4)C3)c21 (stereo not given) 3.09%
COc1ccc(S(=O)(=O)c2c(Nc3cccc(Cl)c3)sc(C(=O)c3ccccc3)c2N)cc1 0.237%
COc1cccc2cc(-c3nc4sc5c(c4c(=O)[nH]3)CCC(C(C)(C)C)C5)c(=O)oc12 (stereo not given) -2.58%
COc1ccc(/C=C/c2nc(C#N)c(N3CCCCC3)o2)cc1OC -5.02%
Cc1ccc2c(=O)cc(C(=O)Nc3c(C)cccc3C)oc2c1 1.41%
CCc1ccc(NC(=O)Cn2ncn3c(cc4ccccc43)c2=O)cc1 -9.38%
CCCCN(Cc1cc2cc(C)ccc2[nH]c1=O)C(=O)c1cccc(Cl)c1 0.862%
Cc1cc2c(cc1S(=O)(=O)NCc1ccc(F)cc1)OCCN2C 0%
COc1ccccc1CNC(=O)C(C)n1c(=O)cc(-c2ccccc2)c2c(C)nn(C)c21 (stereo not given) -11.3%
CC(=O)Nc1ccc2nc3c(=O)n(C)c(=O)n(C)c3nc2c1C -1.84%
CCOC(=O)Cn1c(=O)oc2cc(S(=O)(=O)N3CCN(c4cccc(C)c4)C(C)C3)ccc21 (stereo not given) -1.93%
Cc1nc2cccnc2n1-c1cccc(C(=O)NCCN(C)C)c1 -0.376%
CC(C)c1nn2c(=O)cc(COC(=O)c3cccs3)nc2s1 -14.7%
N#Cc1nc(-c2ccc(COc3ccccc3)o2)oc1N1CCN(c2ccccc2)CC1 -5.67%
CCc1ccc(CNC(=O)c2cnc3sc(N4CCOCC4)nn3c2=O)cc1 -9.35%
COc1ccc(Cl)cc1NC(=O)N1CCN(Cc2cc(=O)n3nc(-c4ccccc4)sc3n2)CC1 14.8%
CCCS(=O)(=O)Nc1cccc(-c2cn3ccc(C)cc3n2)c1 -0.0726%
CCOc1ccc2c(c1)c(=O)c(S(=O)(=O)c1ccc(F)cc1)cn2CC(=O)Nc1ccccc1C -10.7%
NC1=NC(c2cccc(Cl)c2)n2c(nc3ccccc32)N1 (stereo not given) -6.92%
CCOC(=O)c1cnn(-c2ccc(C(=O)Nc3ccc(C(C)=O)cc3)cc2)c1N -8.27%
COc1cc2cc(CNc3ccccc3)c(=O)n(CC(=O)Nc3ccc(C)c(Cl)c3)c2cc1OC -0.0537%
CCOC(=O)c1c(S(=O)(=O)N2CCCC(C(=O)NCc3cccc(C)c3)C2)c(C)n(C)c1C (stereo not given) 1.93%
COCCN(Cc1ccco1)C(=O)c1cc2c(=O)[nH]c3ccc(C)cc3c2s1 -1.31%
COc1ccc(C)cc1NS(=O)(=O)c1c(C(=O)N2CCC(C)CC2)c(C)n(C)c1C 6.08%
COC(=O)c1ccc(NC(=O)CCCC(=O)OCC(=O)c2ccc(Cl)cc2)cc1 -10.3%
Cc1ccc(-c2noc(-c3ccc(N4CCN(C)CC4)c([N+](=O)[O-])c3)n2)cc1 2.92%
O=C(COc1ccccc1)NCC(c1ccc(Cl)cc1)N1CCOCC1 (stereo not given) 1.32%
Cc1ccc(NC(=O)c2oc3ccc4c(c3c2C)C(=O)CC(C)(C)O4)c(C)c1 5.55%
COc1ccc(CCNC(=O)c2cccc(Nc3nc4ccccc4nc3-n3nc(C)cc3C)c2)cc1OC 2.6%
COc1ccc(C2C=C(c3ccc(Cl)cc3)Nc3nc(-c4ccc(Cl)cc4)nn32)cc1 (stereo not given) -9.58%
Cc1ccccc1OCC(=O)NCC(c1ccc(Cl)cc1)N1CCCCC1 (stereo not given) -10.2%
Cn1ncc2c(N3CCN(c4ccccc4F)CC3)ncnc21 4.06%
CCOc1ccc(/C=C/c2nc(C#N)c(NC(C)c3ccccc3)o2)cc1 (stereo not given) -2.76%
COc1ccc(C)cc1NC(=O)Nc1cccc(OCc2cc(=O)n3ccc(C)cc3n2)c1 4.53%
CCOC(=O)c1ccc(-n2c(CCC(=O)O)ccc2-c2ccccc2)cc1 -14.3%
CC(=O)N1CCc2cc(Br)cc(S(=O)(=O)N3CCC(C(=O)Nc4ccc(C(C)C)cc4)CC3)c21 -5.84%
COc1cccc(C(=O)N2c3ncnn3C3(CCCCC3)[C@@H]3CCCC[C@@H]32)c1 -23.5%
COc1ccc(N2CCN(S(=O)(=O)c3ccc(-c4ccno4)cc3OC)CC2)cc1 -5.35%
CCCCc1ccc(NC(=O)c2ccc3c(c2)CCN3S(=O)(=O)CC)cc1 -4.62%
CN(Cc1ccccc1)S(=O)(=O)c1ccc(NC(=O)c2cc(=O)c3ccccc3o2)cc1 4.02%
CCc1cccc(C)c1NC(=O)CN1C(=O)C2(SCC(=O)N2c2cccc(F)c2)c2ccccc21 (stereo not given) 4.83%
Cc1cccc(N2CCN(S(=O)(=O)c3cc(C(=O)Nc4ccc(Oc5ccccc5)cc4)ccc3F)CC2)c1C 12.7%
O=c1oc2ccccc2c(N2CCN(c3ccc(F)cc3)CC2)c1CN1CCCC1 -29.8%
O=C(Cn1ncc2c([nH]c3ccccc32)c1=O)NCCCN1CCN(c2ccccc2)CC1 -8%
COc1ccc(C(=O)COC(=O)c2cc(-c3cccs3)nc3ccccc23)cc1 -19.5%
COc1ccc(OC)c(Nc2sc(C(=O)c3ccccc3)c(N)c2S(=O)(=O)c2ccccc2)c1 -8.87%
Cc1ccccc1NC(=O)Cn1c(=O)n(CCc2ccccc2)c(=O)c2ccccc21 2.54%
CCc1nn2c(=O)cc(COC(=O)c3ccccc3NC(=O)COc3ccc(C)c(C)c3)nc2s1 0%
COc1ccc(CNC(=O)C(C)n2nc(C)c3c(C)n(-c4ccccc4)nc3c2=O)c(OC)c1 (stereo not given) -3.7%
CC(C(=O)Nc1ccc(OC(F)(F)F)cc1)N1Cc2ccccc2C1=O (stereo not given) 1.88%
Cc1oc(-c2ccccc2F)nc1CN1CCC(C(=O)NCCc2ccccc2)CC1 1.16%
CCCCn1cc(S(=O)(=O)c2cc(C)ccc2C)c(=O)c2cc(F)c(F)cc21 -1.58%
CCOC(=O)c1cccc(NC(=O)c2oc3c(c2C)-c2nn(CC)cc2CC3)c1 -15.3%
Cc1c(Cl)cccc1-n1ncc(C(=O)NC2CCCCC2)c1C1CCN(C(=O)OC(C)(C)C)CC1 5.48%
COc1ccc(Br)cc1[C@@H]1Nc2ccc(C(=O)O)cc2[C@@H]2C=CC[C@@H]21 -3.14%
CCOc1ccc(CCNC(=O)CSc2nnnn2-c2ccccc2)cc1OCC -2.37%
Cc1ccc(CNC(=O)Cc2csc3ccccc23)cc1 -2.76%
C#CCn1c(=O)n(-c2cccc(Cl)c2C)c(=O)c2c3c(sc21)CN(C(C)=O)CC3 1.22%
CCOc1ccc(CNC(=O)Cn2nc(C)c3c(C)n(-c4ccc(C)cc4)nc3c2=O)cc1 1.56%
CC(C)C(=O)Nc1nc2c(s1)CC(C(C)(C)C)CC2 (stereo not given) 0.924%
CC(=O)c1ccc(-n2c(CCC(=O)O)ccc2-c2cccs2)cc1 8.73%
COc1ccc(-c2cnc(C)o2)cc1S(=O)(=O)Nc1ccc(OC(F)(F)F)cc1 0.457%
Cc1ccc(C)c(CSc2nnc(C)n3c2cc2sccc23)c1 -5.65%
O=C(Cn1c(=O)nc(-c2ccccc2)c2ccccc21)N1CCN(c2ccc(F)cc2)CC1 0%
COc1cc(OC)c(NC2=C(c3ccc(C(F)(F)F)cc3)C(=O)c3ccccc32)cc1Cl 1.99%
O=C(CS(=O)(=O)c1cccc2nsnc12)NCc1ccccc1 -2.84%

Potency, active:
CCOc1c(Br)cc(C2CC(=O)Nc3cc4c(cc32)OCO4)cc1OC (stereo not given) 14.7 µM
